Data reported in patent publication US11155596B2, “Polypeptide” (AFFIBODY AB, priority 2016, dated 2021).

Key:
[1] = target: T1, hB7-H3 (Homo sapiens, UniProt Q5ZPR3); experiment: Biacore specificity analysis of primary Z variants, hB7-H3; type: binding; conditions: Z variant concentrations up to 50 nM
T1 construct: Fc (IgG Fc fusion partner); purchased R&D Systems 1027-B3-100
T1 sequence (Q5ZPR3 29-316 isoform Q5ZPR3-2 limits assumed): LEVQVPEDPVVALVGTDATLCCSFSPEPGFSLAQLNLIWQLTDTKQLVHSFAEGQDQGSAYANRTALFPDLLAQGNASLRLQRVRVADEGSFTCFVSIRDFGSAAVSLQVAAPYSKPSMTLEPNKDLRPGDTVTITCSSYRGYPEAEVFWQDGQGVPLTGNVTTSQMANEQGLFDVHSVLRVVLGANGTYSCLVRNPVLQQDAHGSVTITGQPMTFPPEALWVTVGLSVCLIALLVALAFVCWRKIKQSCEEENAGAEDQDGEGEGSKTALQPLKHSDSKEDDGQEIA
Experimental: (§1) Biacore kinetic and specificity analysis: Kinetic constants (ka and kd) and affinities (KD) for hPD-L1 were determined for 14 Hiss-tagged Z variants using a Biacore 2000 instrument (GE Healthcare). Some of the Z variants were also tested for binding against the sequence-related proteins hPD-L2, hB7-H3, hB7-H4 and mPD-L1 (mouse PD-L1 Fc Chimera, R&D Systems, cat. no. 1019-B7).
(§2) hPD-L1, hPD-L2, hB7-H3, hB7-H4 and mPD-L1 were immobilized in separate flow cells on the carboxylated dextran layer of different CM5 chip surfaces (GE Healthcare, cat. no. BR100012). The immobilization was performed using amine coupling chemistry according to the manufacturer's protocol and using HBS-EP as running buffer (0.01 M HEPES pH 7.4, 0.15 M NaCl, 3 mM EDTA, 0.005% v/v Surfactant P20, GE Healthcare, cat. no. BR100188). The ligand immobilization levels on the surfaces were 468-894 RU for hPD-L1, 537-742 RU for hPD-L2, 383 RU for hB7-H3, 538-659 RU for hB7-H4 and 482 RU for mPD-L1. One flow cell surface on each chip was activated and deactivated for use as blank during analyte injections. In the kinetic experiment, HBS-EP was used as running buffer and the flow rate was 50 μl/min. […] Kinetic constants were calculated from the sensorgrams using the Langmuir 1:1 model of BiaEvaluation software 4.1 (GE Healthcare).

[2] = target: T2, hB7-H4 (Homo sapiens, UniProt Q7Z7D3); experiment: Biacore specificity analysis of primary Z variants, hB7-H4; type: binding; conditions: for SPR binding against hB7-H4: Z variant concentrations up to 50 nM
T2 construct: purchased R&D Systems 6576-B7-50
T2 sequence (Q7Z7D3 25-282): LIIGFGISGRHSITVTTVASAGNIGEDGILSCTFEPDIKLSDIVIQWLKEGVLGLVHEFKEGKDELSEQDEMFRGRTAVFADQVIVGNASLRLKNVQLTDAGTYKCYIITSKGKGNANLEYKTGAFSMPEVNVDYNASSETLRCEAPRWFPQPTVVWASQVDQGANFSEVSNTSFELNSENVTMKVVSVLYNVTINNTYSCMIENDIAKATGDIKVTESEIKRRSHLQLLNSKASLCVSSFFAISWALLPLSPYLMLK
Experimental: as §1
hPD-L1, hPD-L2, hB7-H3, hB7-H4 and mPD-L1 were immobilized in separate flow cells on the carboxylated dextran layer of different CM5 chip surfaces (GE Healthcare, cat. no. BR100012). The immobilization was performed using amine coupling chemistry according to the manufacturer's protocol and using HBS-EP as running buffer (0.01 M HEPES pH 7.4, 0.15 M NaCl, 3 mM EDTA, 0.005% v/v Surfactant P20, GE Healthcare, cat. no. BR100188). The ligand immobilization levels on the surfaces were 468-894 RU for hPD-L1, 537-742 RU for hPD-L2, 383 RU for hB7-H3, 538-659 RU for hB7-H4 and 482 RU for mPD-L1. One flow cell surface on each chip was activated and deactivated for use as blank during analyte injections. In the kinetic experiment, HBS-EP was used as running buffer and the flow rate was 50 μl/min. The analytes, i.e. the Z variants, were each diluted in HBS-EP buffer within a concentration range of 1000 to 0.01 nM and injected for 5 min, followed by dissociation in running buffer for 15-25 min. After dissociation, the surfaces were regenerated with one or two injections of 0.1% SDS. Kinetic constants were calculated from the sensorgrams using the Langmuir 1:1 model of BiaEvaluation software 4.1 (GE Healthcare).

[3] = target: T3, hPD-L2 (Homo sapiens, UniProt Q9BQ51); experiment: Biacore specificity analysis of primary Z variants, hPD-L2; type: binding; conditions: Z variant concentrations up to 50 nM
T3 construct: Fc (IgG Fc fusion partner); purchased R&D Systems 1224-PL-100
T3 sequence (Q9BQ51 20-219 limits assumed): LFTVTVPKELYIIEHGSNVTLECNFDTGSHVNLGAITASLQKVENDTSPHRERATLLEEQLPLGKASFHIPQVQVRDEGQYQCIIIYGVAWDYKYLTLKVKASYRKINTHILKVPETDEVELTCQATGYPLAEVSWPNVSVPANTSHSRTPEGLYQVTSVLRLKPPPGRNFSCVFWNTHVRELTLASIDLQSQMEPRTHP
Experimental: as §1, §2

[4] = test system: PD-L1 expressing THP-1 cells (IFNγ stimulated); experiment: Cell binding analysis by FACS, THP-1 cells; type: cell-based; conditions: IFNγ stimulated THP-1 cells; 10 μg/ml His6-tagged Z variant (antibody 1 μg/ml); normalized against Z13091
Experimental: Cell binding analysis by FACS: The potential of Z variants to bind PD-L1 expressing cells was investigated using Fluorescence Activated Cell Sorting (FACS). THP-1 cells, cultivated in RPMI (Lonza, cat. no. BE12-702F) containing 10% FBS were stimulated with 10 ng/ml IFNg (R&D Systems, cat. no. 285-IF-100) overnight which results in up-regulation of PD-L1. 150,000 stimulated and unstimulated cells were pipetted per well of a v-bottomed 96 well plate (Nunc, cat. no. 277143) and the cells in the plate were subsequently pelleted at 400 g for 3 min at RT. The supernatants were removed and the cells were resuspended in 100 μl PBS plus 2.5% FBS (staining buffer) containing 10 μg/ml of the different His-tagged Z variants. […] Cells incubated with buffer alone were used as negative controls. The cells were incubated for 1 h at 8° C. in the dark, washed twice with 100 μl staining buffer and resuspended in 100 μl of staining buffer containing a goat anti-Z antibody (produced in house) at a concentration of 5 μg/ml. Cells stained with the positive control were treated with buffer only. The cells were incubated for 1 h at 8° C. in the dark, washed twice with 100 μl staining buffer and resuspended in 100 μl of staining buffer containing an Alexa Fluor 647 chicken anti-goat IgG antibody (Life technologies, cat. no. A21469) or an Alexa Fluor 647 goat anti-mouse IgG antibody (Life technologies cat. no. A21236). The cells were once again incubated for 1 h at 8° C. in the dark, washed twice with 100 μl staining buffer and resuspended in 200 μl of staining buffer. Data from 10,000 cells were obtained using a FACS Calibur ([…]) and the data was analyzed using Flowing software 2.5.0 (Turku University). Mean fluorescence intensity (MFI) was used as a read out of binding capacity.

Substance | SPR binding against hB7-H3 [1] | SPR binding against hB7-H4 [2] | SPR binding against hPD-L2 [3] | MFI (normalized) [4] | SPR response against B7-H4 ([2]; 1000 nM Z variant injected) | Kd ([2]; Biacore, immobilized hB7-H4, response seen at 1000 nM Z variant) [µM]
Z13091: primary PD-L1 binding Z variant (VDAKYAKERNNAAFEILRLPNLTNGQHWAFIWKLADDPSQSSELLSEAKKLNDSQAPK; Engineered PD-L1 binding polypeptide) | absence of SPR response | absence of SPR response | absence of SPR response | 1.00 |  | 
Z13156: primary PD-L1 binding Z variant (VDAKYAKERNQAAVEILQLPNLTAAQYWAFIWKLDDDPSQSSELLSEAKKLNDSQAPK; Engineered PD-L1 binding polypeptide) | absence of SPR response | absence of SPR response | absence of SPR response | 1.09 | some response | > 5
